± gives the standard deviation of the averaged measurements. Growth of baker's yeast expressing single-residue variants of Pneumocystis jirovecii dihydrofolate reductase in 8.8 or 44 µM methotrexate (about 75% and 90% inhibition of the wild type). Selection coefficient per generation; 0 = like wild type, above 0 = less sensitive, below 0 = more sensitive or loss of function. No active / inactive call per row; the paper calls resistant above 0.220 (8.8 µM) or 0.243 (44 µM) together with a significance test. At 44 µM about 15% of codons end with one read or none, so the lowest values are floors (replicate rank correlation 0.74; 0.94 at 8.8 µM).
B1: UniProt A0EPZ9; numbered along this chain (parent)
chain: MDWQKSLTLIVALTLSRGIGLKNDLPWKLKSDMMFFSRVTSGLLVTRSTGQMNVVLMGRKTWESLPAHSRPLKNRINVVISRQEVLDLGGGAYHARSLDDALALLSQIYDSTSKIQLNRVFVIGGGELCKAAMEHSRLNRIIATVIHNEVDCDVFFPIDFRSSQSCLPWRKQDHSVLEAWVGSKVPQGKINENGFIYEFEMWIRDI

Variants of: B1
Assay: selection coefficient against synonymous wild-type codons (log2 per generation); higher = faster growth than wild type
Details: with Saccharomyces cerevisiae carrying the variant on a plasmid
Procedure: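 Pooled growth of yeast carrying single-residue variants of P. jirovecii dihydrofolate reductase (own DFR1 gene intact), two passages at 30 °C, three cultures, sequenced before and after. Codons with under 15 starting reads are left out; codons of one change are averaged.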

MDWQKSLTLIVALTLSRGIGLKNDDPWKLKSDMMFFSRVTSGLLVTRSTGQMNVVLMGRKTWESLPAHSRPLKNRINVVISRQEVLDLGGGAYHARSLDDALALLSQIYDSTSKIQLNRVFVIGGGELCKAAMEHSRLNRIIATVIHNEVDCDVFFPIDFRSSQSCLPWRKQDHSVLEAWVGSKVPQGKINENGFIYEFEMWIRDI [L25D]
selection coefficient against synonymous wild-type codons (log2) (methotrexate 8.8 µM): -0.152 ± 0.022
selection coefficient against synonymous wild-type codons (log2) (methotrexate 44 µM): -0.147 ± 0.22

MDWQKSLTLIVALTLSRGIGLKNDIPWKLKSDMMFFSRVTSGLLVTRSTGQMNVVLMGRKTWESLPAHSRPLKNRINVVISRQEVLDLGGGAYHARSLDDALALLSQIYDSTSKIQLNRVFVIGGGELCKAAMEHSRLNRIIATVIHNEVDCDVFFPIDFRSSQSCLPWRKQDHSVLEAWVGSKVPQGKINENGFIYEFEMWIRDI [L25I]
selection coefficient against synonymous wild-type codons (log2) (methotrexate 8.8 µM): 0.0443 ± 0.025
selection coefficient against synonymous wild-type codons (log2) (methotrexate 44 µM): 0.0629 ± 0.11

MDWQKSLTLIVALTLSRGIGLKNDFPWKLKSDMMFFSRVTSGLLVTRSTGQMNVVLMGRKTWESLPAHSRPLKNRINVVISRQEVLDLGGGAYHARSLDDALALLSQIYDSTSKIQLNRVFVIGGGELCKAAMEHSRLNRIIATVIHNEVDCDVFFPIDFRSSQSCLPWRKQDHSVLEAWVGSKVPQGKINENGFIYEFEMWIRDI [L25F]
selection coefficient against synonymous wild-type codons (log2) (methotrexate 8.8 µM): -0.264 ± 0.043
selection coefficient against synonymous wild-type codons (log2) (methotrexate 44 µM): -0.0854 ± 0.09

MDWQKSLTLIVALTLSRGIGLKNDGPWKLKSDMMFFSRVTSGLLVTRSTGQMNVVLMGRKTWESLPAHSRPLKNRINVVISRQEVLDLGGGAYHARSLDDALALLSQIYDSTSKIQLNRVFVIGGGELCKAAMEHSRLNRIIATVIHNEVDCDVFFPIDFRSSQSCLPWRKQDHSVLEAWVGSKVPQGKINENGFIYEFEMWIRDI [L25G]
selection coefficient against synonymous wild-type codons (log2) (methotrexate 8.8 µM): -0.289 ± 0.061
selection coefficient against synonymous wild-type codons (log2) (methotrexate 44 µM): -0.184 ± 0.052

MDWQKSLTLIVALTLSRGIGLKNDCPWKLKSDMMFFSRVTSGLLVTRSTGQMNVVLMGRKTWESLPAHSRPLKNRINVVISRQEVLDLGGGAYHARSLDDALALLSQIYDSTSKIQLNRVFVIGGGELCKAAMEHSRLNRIIATVIHNEVDCDVFFPIDFRSSQSCLPWRKQDHSVLEAWVGSKVPQGKINENGFIYEFEMWIRDI [L25C]
selection coefficient against synonymous wild-type codons (log2) (methotrexate 8.8 µM): -0.156 ± 0.049
selection coefficient against synonymous wild-type codons (log2) (methotrexate 44 µM): -0.13 ± 0.089

MDWQKSLTLIVALTLSRGIGLKNDAPWKLKSDMMFFSRVTSGLLVTRSTGQMNVVLMGRKTWESLPAHSRPLKNRINVVISRQEVLDLGGGAYHARSLDDALALLSQIYDSTSKIQLNRVFVIGGGELCKAAMEHSRLNRIIATVIHNEVDCDVFFPIDFRSSQSCLPWRKQDHSVLEAWVGSKVPQGKINENGFIYEFEMWIRDI [L25A]
selection coefficient against synonymous wild-type codons (log2) (methotrexate 8.8 µM): -0.183 ± 0.095
selection coefficient against synonymous wild-type codons (log2) (methotrexate 44 µM): -0.18 ± 0.16

MDWQKSLTLIVALTLSRGIGLKNDHPWKLKSDMMFFSRVTSGLLVTRSTGQMNVVLMGRKTWESLPAHSRPLKNRINVVISRQEVLDLGGGAYHARSLDDALALLSQIYDSTSKIQLNRVFVIGGGELCKAAMEHSRLNRIIATVIHNEVDCDVFFPIDFRSSQSCLPWRKQDHSVLEAWVGSKVPQGKINENGFIYEFEMWIRDI [L25H]
selection coefficient against synonymous wild-type codons (log2) (methotrexate 8.8 µM): -0.213 ± 0.075
selection coefficient against synonymous wild-type codons (log2) (methotrexate 44 µM): -0.188 ± 0.06

MDWQKSLTLIVALTLSRGIGLKNDEPWKLKSDMMFFSRVTSGLLVTRSTGQMNVVLMGRKTWESLPAHSRPLKNRINVVISRQEVLDLGGGAYHARSLDDALALLSQIYDSTSKIQLNRVFVIGGGELCKAAMEHSRLNRIIATVIHNEVDCDVFFPIDFRSSQSCLPWRKQDHSVLEAWVGSKVPQGKINENGFIYEFEMWIRDI [L25E]
selection coefficient against synonymous wild-type codons (log2) (methotrexate 8.8 µM): 0.351 ± 0.028
selection coefficient against synonymous wild-type codons (log2) (methotrexate 44 µM): 0.332 ± 0.061

MDWQKSLTLIVALTLSRGIGLKNTLPWKLKSDMMFFSRVTSGLLVTRSTGQMNVVLMGRKTWESLPAHSRPLKNRINVVISRQEVLDLGGGAYHARSLDDALALLSQIYDSTSKIQLNRVFVIGGGELCKAAMEHSRLNRIIATVIHNEVDCDVFFPIDFRSSQSCLPWRKQDHSVLEAWVGSKVPQGKINENGFIYEFEMWIRDI [D24T]
selection coefficient against synonymous wild-type codons (log2) (methotrexate 8.8 µM): 0.00617 ± 0.078
selection coefficient against synonymous wild-type codons (log2) (methotrexate 44 µM): 0.0264 ± 0.16

MDWQKSLTLIVALTLSRGIGLKNYLPWKLKSDMMFFSRVTSGLLVTRSTGQMNVVLMGRKTWESLPAHSRPLKNRINVVISRQEVLDLGGGAYHARSLDDALALLSQIYDSTSKIQLNRVFVIGGGELCKAAMEHSRLNRIIATVIHNEVDCDVFFPIDFRSSQSCLPWRKQDHSVLEAWVGSKVPQGKINENGFIYEFEMWIRDI [D24Y]
selection coefficient against synonymous wild-type codons (log2) (methotrexate 8.8 µM): -0.103 ± 0.041
selection coefficient against synonymous wild-type codons (log2) (methotrexate 44 µM): -0.19 ± 0.15

MDWQKSLTLIVALTLSRGIGLKNWLPWKLKSDMMFFSRVTSGLLVTRSTGQMNVVLMGRKTWESLPAHSRPLKNRINVVISRQEVLDLGGGAYHARSLDDALALLSQIYDSTSKIQLNRVFVIGGGELCKAAMEHSRLNRIIATVIHNEVDCDVFFPIDFRSSQSCLPWRKQDHSVLEAWVGSKVPQGKINENGFIYEFEMWIRDI [D24W]
selection coefficient against synonymous wild-type codons (log2) (methotrexate 8.8 µM): -0.271 ± 0.11
selection coefficient against synonymous wild-type codons (log2) (methotrexate 44 µM): -0.285 ± 0.051

MDWQKSLTLIVALTLSRGIGLKNRLPWKLKSDMMFFSRVTSGLLVTRSTGQMNVVLMGRKTWESLPAHSRPLKNRINVVISRQEVLDLGGGAYHARSLDDALALLSQIYDSTSKIQLNRVFVIGGGELCKAAMEHSRLNRIIATVIHNEVDCDVFFPIDFRSSQSCLPWRKQDHSVLEAWVGSKVPQGKINENGFIYEFEMWIRDI [D24R]
selection coefficient against synonymous wild-type codons (log2) (methotrexate 8.8 µM): 0.0155 ± 0.11
selection coefficient against synonymous wild-type codons (log2) (methotrexate 44 µM): 0.0209 ± 0.15

MDWQKSLTLIVALTLSRGIGLKNSLPWKLKSDMMFFSRVTSGLLVTRSTGQMNVVLMGRKTWESLPAHSRPLKNRINVVISRQEVLDLGGGAYHARSLDDALALLSQIYDSTSKIQLNRVFVIGGGELCKAAMEHSRLNRIIATVIHNEVDCDVFFPIDFRSSQSCLPWRKQDHSVLEAWVGSKVPQGKINENGFIYEFEMWIRDI [D24S]
selection coefficient against synonymous wild-type codons (log2) (methotrexate 8.8 µM): -0.0429 ± 0.084
selection coefficient against synonymous wild-type codons (log2) (methotrexate 44 µM): 0.0616 ± 0.054

MDWQKSLTLIVALTLSRGIGLKNVLPWKLKSDMMFFSRVTSGLLVTRSTGQMNVVLMGRKTWESLPAHSRPLKNRINVVISRQEVLDLGGGAYHARSLDDALALLSQIYDSTSKIQLNRVFVIGGGELCKAAMEHSRLNRIIATVIHNEVDCDVFFPIDFRSSQSCLPWRKQDHSVLEAWVGSKVPQGKINENGFIYEFEMWIRDI [D24V]
selection coefficient against synonymous wild-type codons (log2) (methotrexate 8.8 µM): -0.0749 ± 0.061
selection coefficient against synonymous wild-type codons (log2) (methotrexate 44 µM): -0.0635 ± 0.11

MDWQKSLTLIVALTLSRGIGLKNQLPWKLKSDMMFFSRVTSGLLVTRSTGQMNVVLMGRKTWESLPAHSRPLKNRINVVISRQEVLDLGGGAYHARSLDDALALLSQIYDSTSKIQLNRVFVIGGGELCKAAMEHSRLNRIIATVIHNEVDCDVFFPIDFRSSQSCLPWRKQDHSVLEAWVGSKVPQGKINENGFIYEFEMWIRDI [D24Q]
selection coefficient against synonymous wild-type codons (log2) (methotrexate 8.8 µM): 0.298 ± 0.054
selection coefficient against synonymous wild-type codons (log2) (methotrexate 44 µM): 0.289 ± 0.1
